According to PubChem BioAssay AID1030 (National Center for Advancing Translational Sciences (NCATS), 2008):
About 16,000 (7.3%) of roughly 220,000 compounds were called active. This list was built around the results that the source calls inconclusive (neither active nor inactive); the mix of calls is not that of the screen. Calls follow the shape of the dose curve; as a rule, active = well fitted inhibition curve with a large enough effect (not every such curve was filed as active); inconclusive = small, poorly fitted or top-dose-only effect, or another doubt; inactive = no such curve, though single readings can be large or run the other way. Potencies of inconclusive entries are left out as doubtful fits.

These molecules were tested against Aldehyde dehydrogenase 1A1 (Homo sapiens) (UniProt P00352) (assay: qHTS Assay for Inhibitors of Aldehyde Dehydrogenase 1 (ALDH1A1)). Settings: Purified ALDH1A1, NADH fluorescence, propionaldehyde substrate; series mostly up to 75.3 µM.
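For activity, negative = inhibition in this document: plate controls were no enzyme wells and a reference inhibitor.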
Potency is read from the fitted curve at half-maximal effect; tags tell the direction and shape of the fitted curve.

UniProt P00352, sequence (P00352 whole entry, looked up): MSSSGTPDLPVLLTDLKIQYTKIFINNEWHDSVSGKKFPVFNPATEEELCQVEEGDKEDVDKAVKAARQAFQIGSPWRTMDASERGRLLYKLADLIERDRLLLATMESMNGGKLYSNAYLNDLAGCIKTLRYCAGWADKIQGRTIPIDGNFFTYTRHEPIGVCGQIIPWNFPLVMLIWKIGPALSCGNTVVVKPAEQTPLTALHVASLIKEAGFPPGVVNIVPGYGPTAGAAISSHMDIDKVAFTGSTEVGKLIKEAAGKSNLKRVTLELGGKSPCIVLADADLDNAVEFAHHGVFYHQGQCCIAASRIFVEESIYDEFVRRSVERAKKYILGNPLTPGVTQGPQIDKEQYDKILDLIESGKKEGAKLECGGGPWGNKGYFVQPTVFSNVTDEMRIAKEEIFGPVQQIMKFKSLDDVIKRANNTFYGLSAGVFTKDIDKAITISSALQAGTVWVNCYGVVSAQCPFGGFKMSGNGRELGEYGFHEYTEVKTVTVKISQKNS

| Compound | Potency | activity, negative = inhibition |
| --- | --- | --- |
| COc1ccc(/C=C2\SC(c3ccc(C)cc3)=NC2=O)cc1OC | inconclusive [inhibitor, partial curve] |  |
| O=C(CNCc1cccs1)Nc1ccc(S(=O)(=O)N2CCCCC2)cc1 | inconclusive [inhibitor, single point] |  |
| O=C(/C=C/N1CCOCC1)c1cc2ccccc2o1 | active: 17.8 µM |  |
| COc1ccc2nc(SCc3cccc(C)c3)nc(C)c2c1 | inconclusive [inhibitor, single point] |  |
| Cc1ccc(S(=O)(=O)/C(C#N)=C/c2ccccc2OCc2ccccc2)cc1 | inconclusive [inhibitor, single point] |  |
| CC1(C)CC(=O)C(C=NCCN2CCN(C(=S)NC3CCCCC3)CC2)=C(O)C1 | inconclusive [inhibitor, partial curve] |  |
| CCCCCn1c(SC(C)C(C)=O)nc2c1c(=O)[nH]c(=O)n2C (stereo unspecified) | inconclusive [inhibitor, partial curve] |  |
| N#Cc1nc(COc2ccccc2)oc1NCCN1CCOCC1 | inactive |  |
| CC(C)(C)c1ccc(NC(=O)Cn2cnc3cc([N+](=O)[O-])ccc3c2=O)cc1 | inactive |  |
| COC(=O)CCC(=O)OC1(C)C(=O)C2=CN(Cc3ccccc3)C(c3ccc(OC)cc3)=CC2=C(Br)C1=O (stereo unspecified) |  | inactive: -14.5% [at 13.5 µM] |
| O=c1ccc(Cc2ccccn2)n[nH]1 | inactive |  |
| COc1ccccc1CN1C(=O)[C@@H]2C(CC(N)=O)NC3(C(=O)Nc4c3ccc(Cl)c4C)[C@@H]2C1=O (stereo partly specified) | inconclusive [inhibitor, partial curve] |  |
| COc1ccc2cccc(N3CCN(CCNC(=O)c4ccc(F)cc4)CC3)c2c1 | inconclusive [inhibitor, single point] |  |
| CC(=O)Nc1ccc(SCC(=O)c2cc(C)n(-c3ccccc3F)c2C)cc1 | inconclusive [inhibitor, single point] |  |
| Cc1sc(-n2c(C)cc(/C=N/n3cnnc3)c2C)c(C#N)c1C | active: 3.98 µM |  |
| COC(=O)C1=C(C)NC2=C(C(=O)CCC2)C1c1cccs1 (stereo unspecified) | inactive |  |
| COc1ccc2cc(Br)ccc2c1CC(=O)NC1CC(C)(C)NC(C)(C)C1 | inconclusive [inhibitor, single point] |  |
| Cc1cc(C)c(S(=O)(=O)Nc2cccc3nsnc23)c(C)c1 | inconclusive [inhibitor, single point] |  |
| Cn1c(=O)c2c(nc(SCC(=O)N3CCc4ccccc4C3)n2C)n(C)c1=O | inconclusive [inhibitor, partial curve] |  |
| O=C(CN1C(=O)S/C(=C/c2cc(Br)cs2)C1=O)N1CCOCC1 | active: 22.4 µM |  |
| O=C(CCn1cnnn1)Nc1ccccc1F | inconclusive [inhibitor, single point] |  |
| CC1CCC2(CC1)C(Nc1cccc(Cl)c1)=NC(=S)N2CC#N (stereo unspecified) | inactive |  |
| Cc1cc(NC2CCCCC2)nc(-c2ccccc2O)n1 | inactive |  |
| COc1ccc2nc(NC(=O)CSc3ccccc3)sc2c1 | active: 28.2 µM |  |

| Compound | Potency | activity, negative = inhibition |
| --- | --- | --- |
| N#CC1(Cc2ccccc2Cl)c2ccccc2C=CN1C(=O)c1ccccc1 (stereo unspecified) | inconclusive [inhibitor, single point] |  |
| O=C(c1ccccc1)c1c[nH]c2cc3c(cc2c1=O)OCCO3 | inconclusive [inhibitor, single point] |  |
| CCc1ccc(OCc2ccc(C(=O)NCc3ccccn3)o2)cc1 | inconclusive [inhibitor, single point] |  |
| COc1ccc(C2=NOC(C(=O)NC(C)C)C2)cc1 (stereo unspecified) | inactive |  |
| CC(=O)c1c(COC(=O)c2ccc(F)cc2)nc2ccccc2[n+]1[O-] | inactive |  |
| O=S(=O)(NCc1ccccc1)c1ccc(S(=O)(=O)N2CCCC2)cc1 | inconclusive [inhibitor, single point] |  |
| CCOC(=O)CSc1nnc(CNC(=O)c2cccs2)n1CCc1ccccc1 | inconclusive [inhibitor, single point] |  |
| COCCNC(=O)c1cc(-c2cccnc2)nc2ccc(Br)cc12 | inactive |  |
| CCOC(=O)c1c(NC(=O)CSc2cccc[n+]2[O-])sc(C(=O)Nc2ccccc2)c1C | active: 28.2 µM |  |
| CCOCCn1c(SCc2ccc(C)cc2)nc2c1c(=O)[nH]c(=O)n2C | inactive |  |
| Cc1nc2c(c(=O)n1Cc1ccco1)c1nc3ccccc3nc1n2Cc1ccccc1 | inconclusive [inhibitor, partial curve] |  |
| COc1cc2[nH]c(=O)n(Cc3ccc(C(=O)NCCCN4CCC(C)CC4)cc3)c(=O)c2cc1OC | inconclusive [inhibitor, single point] |  |
| COc1ccccc1Nc1ncnc2c1oc1ccccc12 | inconclusive [inhibitor, single point] |  |
| O=c1cc(CN2CCc3ccccc3C2)nc2sccn12 | inconclusive [inhibitor, single point] |  |
| COCCCn1c(SCC(=O)OC2CCCCC2)nnc1-c1ccco1 | inconclusive [inhibitor, partial curve] |  |
| O=C1NC(NS(=O)(=O)c2ccccc2)(C(F)(F)F)C(=O)N1Cc1cccnc1 (stereo unspecified) | inconclusive [inhibitor, single point] |  |
| COc1ccc(-c2nc(NC(C)=O)sc2-c2ccc(OC)cc2)cc1 | active: 3.16 µM |  |
| COc1ccc(O)c(/C=N\NC(=O)CCn2nnc3ccccc32)c1 | inconclusive [inhibitor, partial curve] |  |
| NS(=O)(=O)c1cc(C(=O)OCC(=O)Nc2ccccc2[N+](=O)[O-])ccc1Cl | inconclusive [inhibitor, single point] |  |
| CCOC(=O)c1c(C)oc(NC(=O)COc2ccc(Cl)cc2C)c1C#N | inconclusive [inhibitor, single point] |  |
| Cn1nnc2cc(NC(=O)N3CC4(C)CC3CC(C)(C)C4)ccc21 (stereo unspecified) | inconclusive [inhibitor, single point] |  |
| N/C(=N/OCC(=O)Nc1cccc2ccccc12)c1nonc1N | inconclusive [inhibitor, single point] |  |
| CSc1c(SCc2ccccc2)cnn(-c2ccccc2)c1=O | inconclusive [inhibitor, single point] |  |
| COc1ccccc1N1CCN(C(=O)CSc2nc3ccccc3[nH]2)CC1 | inactive |  |

| Compound | Potency | activity, negative = inhibition |
| --- | --- | --- |
| COc1ccc(C2=NN(CCC(=O)NCc3ccc4c(c3)OCO4)C(=O)CC2)cc1 | inconclusive [inhibitor, single point] |  |
| CCOC(=O)c1ccc2c(c1)nc(SC/C(O)=C(\C#N)c1nc3ccccc3[nH]1)n2CC | inconclusive [inhibitor, single point] |  |
| O=C1C2CCCN2c2ccc(S(=O)(=O)N3CCOCC3)cc2N1Cc1cccc(C(F)(F)F)c1 (stereo unspecified) | inconclusive [inhibitor, single point] |  |
| O=C(CSCCSCC(=O)c1ccco1)c1ccco1 | active: 22.4 µM |  |
| Nc1ccc2nc3n(c(=O)c2c1)CCC3 | inconclusive [inhibitor, partial curve] |  |
| COc1ccccc1NCc1ccc([N+](=O)[O-])s1 | active: 14.1 µM |  |
| Cc1ccc(NC(=S)NCc2ccc3c(c2)cc(C)n3C)c(C)c1 | inconclusive [inhibitor, single point] |  |
| CCOC(=O)Cc1csc(NC(=O)/C=C/c2ccc(OC)cc2)n1 | inactive |  |
| Cc1noc(NS(=O)(=O)c2ccc(NC(=O)CSc3nc4c(cc3C#N)CCCC4)cc2)c1C | active: 28.2 µM |  |
| CCOC(=O)C1(Cc2cccc(Cl)c2)CCCN(CCO)C1 (stereo unspecified) | inactive |  |
| CCCCOC(=O)c1ccc(NC(=O)CSC2=Nc3ccccc3C3CC=NN23)cc1 (stereo unspecified) | inconclusive [inhibitor, single point] |  |
| N/C(=N\OC(=O)CC1CCCCC1)c1cccc([N+](=O)[O-])c1 | active: 12.6 µM |  |
| c1csc(-c2nc3nc4ccccc4nc3n2Cc2ccc3c(c2)OCO3)c1 | inconclusive [inhibitor, single point] |  |
| Cc1c(=O)n(OCc2ccccc2F)c2ccccc2[n+]1[O-] | inconclusive [inhibitor, partial curve] |  |
| Cc1cc(C(=O)NC(=S)Nc2ccccc2N2CCCC2)ccc1[N+](=O)[O-] | inconclusive [inhibitor, partial curve] |  |
| COc1cc2nc3c4ccccc4n(CC#N)c3nc2cc1OC | inconclusive [inhibitor, single point] |  |
| Cc1ccc(NC(=O)CSc2cccc[n+]2[O-])c([N+](=O)[O-])c1 | inactive |  |
| Cc1ccc(C)n1-c1ccc(N2CCOCC2)nc1 | inconclusive [inhibitor, partial curve] |  |
| O=[N+]([O-])c1ccc(Nc2nc(N/N=C/c3cccc(F)c3)nc(N3CCCC3)n2)cc1 | inconclusive [inhibitor, single point] |  |
| COc1cc(NC(=O)Nc2ccc3c(c2)OCO3)cc(OC)c1OC | inactive |  |
| CCCC(=O)Nc1sc(C)c(C)c1C#N | inconclusive [inhibitor, single point] |  |
| COc1ccccc1C1CC(c2ccc(NS(C)(=O)=O)cc2)=NN1C(=O)c1ccccc1 (stereo unspecified) | inconclusive [inhibitor, single point] |  |
| O=S(=O)(NC1CCN(Cc2ccccc2)CC1)c1ccc2ccccc2c1 | active: 22.4 µM |  |
